This note sets out measurements from article PMC4336329 (PLoS ONE, 2015).

Screen size: about 310,000 compounds; about 14,000 (4.5%) showed an effect of 50% or more. Effects have a minus sign here. Some of the results follow.
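Further: peak tail current of the secondary pulse compared with the same well before compound.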

For the assay, the target named is human ether-à-go-go-related gene (hERG) potassium channel (human, UniProt Q12809). As to the kind of experiment: primary screen, population patch clamp on CHO cells stably expressing hERG.
human ether-à-go-go-related gene (hERG) potassium channel, sequence (Q12809 whole entry, looked up): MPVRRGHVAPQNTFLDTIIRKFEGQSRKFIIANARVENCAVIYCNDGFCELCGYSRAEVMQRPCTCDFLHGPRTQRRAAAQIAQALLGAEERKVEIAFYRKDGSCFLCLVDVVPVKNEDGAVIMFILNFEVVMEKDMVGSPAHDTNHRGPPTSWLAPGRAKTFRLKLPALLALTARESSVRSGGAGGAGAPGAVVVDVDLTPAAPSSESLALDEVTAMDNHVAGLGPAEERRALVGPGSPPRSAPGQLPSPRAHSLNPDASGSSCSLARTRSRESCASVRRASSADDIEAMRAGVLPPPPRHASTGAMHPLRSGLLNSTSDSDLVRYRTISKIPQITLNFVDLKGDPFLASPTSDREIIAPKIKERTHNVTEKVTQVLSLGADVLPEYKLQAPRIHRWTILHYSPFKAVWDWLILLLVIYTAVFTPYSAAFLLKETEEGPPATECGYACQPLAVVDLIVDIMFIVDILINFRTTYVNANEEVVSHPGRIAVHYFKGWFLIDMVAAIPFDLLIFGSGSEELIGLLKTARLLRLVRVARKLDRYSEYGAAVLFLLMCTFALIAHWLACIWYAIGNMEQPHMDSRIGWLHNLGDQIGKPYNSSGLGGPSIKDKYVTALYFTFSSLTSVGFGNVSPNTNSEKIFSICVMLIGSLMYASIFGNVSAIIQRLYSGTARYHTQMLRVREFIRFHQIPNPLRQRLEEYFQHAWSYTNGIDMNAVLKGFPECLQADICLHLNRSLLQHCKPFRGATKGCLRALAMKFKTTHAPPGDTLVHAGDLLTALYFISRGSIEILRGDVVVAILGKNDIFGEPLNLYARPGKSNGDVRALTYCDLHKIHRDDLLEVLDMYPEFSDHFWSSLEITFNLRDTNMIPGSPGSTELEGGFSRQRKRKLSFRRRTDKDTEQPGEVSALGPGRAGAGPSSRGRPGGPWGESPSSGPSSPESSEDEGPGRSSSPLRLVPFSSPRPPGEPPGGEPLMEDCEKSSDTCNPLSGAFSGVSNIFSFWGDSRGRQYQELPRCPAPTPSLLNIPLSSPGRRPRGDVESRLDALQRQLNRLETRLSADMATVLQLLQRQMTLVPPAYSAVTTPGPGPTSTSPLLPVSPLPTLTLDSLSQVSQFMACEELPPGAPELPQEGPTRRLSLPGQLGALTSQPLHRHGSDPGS
Take `CCCC(C)NC(=S)Nc1cc(C)cc(C)c1` (centres unmarked): the “hERG current change (%, negative = inhibition) at 10uM” value is -10.1%.
With `O=S(=O)(NC1CCc2ccccc21)c1ccc(S(=O)(=O)N2CCCC2)cc1` (centres unmarked), the “hERG current change (%, negative = inhibition) at 10uM” value is reported as -10.5%.
`COc1cc(C(=O)OCc2cc(=O)c(O)co2)ccc1OC(F)F`: the “hERG current change (%, negative = inhibition) at 10uM” value is on record as -12.9%.
`CC(=O)/C(=N\Nc1cccc(Cl)c1)Sc1nnc(-c2ccccc2)n1-c1ccccc1`: the “hERG current change (%, negative = inhibition) at 10uM” value is recorded as -1.85%.
As to `Fc1ccccc1CSc1nnc(-c2ccccc2)o1`, the “hERG current change (%, negative = inhibition) at 10uM” value is given as -9.31%.
The same measure for `COc1cccc(/C=N/Nc2ccc([N+](=O)[O-])cn2)c1O`: 2.03%; for `COc1ccc2[nH]c(=O)c(CN(C(=O)c3ccncc3)C(C)C)cc2c1`: -20.6%.
The same measure for `CCc1noc(C)c1C(=O)OCC(=O)NCc1ccccc1`: 2.29%; for `CC(=O)c1cccc(NC(=O)Cn2cnc(S(=O)(=O)N3CCCC3)c2)c1`: 23%; for `CN1CCN(Cc2ccc(Br)s2)CC1`: 8.42%.
The same measure for `Cc1ccc(OCCCN2CCOCC2)cc1`: 13.3%; for `CSc1cccc(CN2CCN(Cc3ccc(F)c(F)c3)C(CCO)C2)c1` (centres unmarked): -69.5%.
Turning to `CCOC(=O)c1cnn(-c2nc(OCC)cc(OCC)n2)c1C`, the “hERG current change (%, negative = inhibition) at 10uM” value is listed as -0.293%.
For `COc1cccc(C(C(=O)NCc2ccco2)N(Cc2ccco2)C(=O)Cn2nnc3ccccc32)c1` (centres unmarked), the “hERG current change (%, negative = inhibition) at 10uM” value is 6.29%.
For the compound `Cc1ccc(C(CC(=O)O)NC(=O)CN2C(=O)c3ccccc3C2=O)cc1` (centres unmarked), the “hERG current change (%, negative = inhibition) at 10uM” value was determined as 18.4%.
Turning to `COC(=O)c1ccc(CSc2nc(C)nc3sc(C)c(C)c23)o1`, the “hERG current change (%, negative = inhibition) at 10uM” value is 3.87%.
Regarding `O=C(CC1S/C(=N/N=C/c2cccs2)NC1=O)Nc1ccc(Cl)cc1` (centres unmarked), the “hERG current change (%, negative = inhibition) at 10uM” value is reported as -3.86%.
Consider `COC(=O)CC1COc2ccccc2N1S(=O)(=O)c1ccc(Br)cc1` (centres unmarked), for which the “hERG current change (%, negative = inhibition) at 10uM” value is 11.4%.
For the compound `CCC(=O)OC1(C)C(=O)C=C2C=C(C3CC3)OC=C2C1=O` (centres unmarked), the “hERG current change (%, negative = inhibition) at 10uM” value is recorded as 12.5%.
`CCOC(=O)C1CCN(S(=O)(=O)c2cc(C(=O)N3CCCCC3)ccc2OC)CC1`: the “hERG current change (%, negative = inhibition) at 10uM” value was -3.81%.
For `Cc1cccc(N(CC(=O)NC2CCCC2)C(=O)c2cc3cc4cccc(C)c4nc3s2)c1C` the value was 3.27%; for `CC(=O)NC(c1ccc([N+](=O)[O-])cc1)c1c(O)ccc2ccccc12` (centres unmarked), 9.69%.
Consider `COC(=O)c1ccc(/C=N/OCC(=O)Nc2cc(F)ccc2F)cc1`, for which the “hERG current change (%, negative = inhibition) at 10uM” value was determined as 8.03%.
Regarding `COC(=O)C(N)Cc1ccc(O)c(O)c1.Cl` (centres unmarked), the “hERG current change (%, negative = inhibition) at 10uM” value was -2.08%.
The same measure for `CC(Sc1nnc(C2CCCCC2)n1N)C(=O)NCc1ccc2c(c1)OCO2` (centres unmarked): 3.2%; for `Cc1occc1-c1nnc(SCCNCCO)o1.O=C(O)C(=O)O`: 63.6%.
Regarding `CC(=O)Nc1ccc(NC(=O)CN2CCCC(C)C2)c(Cl)c1` (centres unmarked), the “hERG current change (%, negative = inhibition) at 10uM” value is reported as -5.17%.
As to `Cn1c(/N=C/c2cccs2)nc2ccccc21`, the “hERG current change (%, negative = inhibition) at 10uM” value came out at 3.96%.
For `COc1c(C)cc(NC(=O)c2ccc3c(c2)NC(=O)CO3)cc1C` the value was 10%.
In the case of `CCOC(=O)/C(C#N)=C1/C=C(C)c2ccccc2N1`, the “hERG current change (%, negative = inhibition) at 10uM” value was found to be 13.6%.
Regarding `Cc1ccc(C(C)n2cc(C(=O)NCc3ccncc3)nn2)cc1` (centres unmarked), the “hERG current change (%, negative = inhibition) at 10uM” value is reported as -6.72%.
Regarding `COc1cc(C2c3cc4c(cc3C(OC3OC5COC(c6cccs6)OC5C(O)C3O)C3COC(=O)C23)OCO4)cc(OC)c1O` (centres unmarked), the “hERG current change (%, negative = inhibition) at 10uM” value was found to be 17.4%.
For `Cc1ccc2nsnc2c1S(=O)(=O)NCc1cccnc1`, the “hERG current change (%, negative = inhibition) at 10uM” value is given as -1.19%.
Turning to `CCN(CC)S(=O)(=O)c1cccc(N=Nc2sc(N)nc2C)c1`, the “hERG current change (%, negative = inhibition) at 10uM” value is -12.8%.
Consider `Nc1scn[n+]1Cc1cccc2cccnc12.[Br-]`, for which the “hERG current change (%, negative = inhibition) at 10uM” value was -11.1%.
Consider `Cc1ccc(/C(COc2ccccc2O)=N\O)cc1`, for which the “hERG current change (%, negative = inhibition) at 10uM” value is reported as -4.13%.
For `CCN(CC)C(=O)c1[nH]cnc1C(=O)Nc1ccon1`, the “hERG current change (%, negative = inhibition) at 10uM” value turned out to be 0.396%.
With `COc1ccc(C(=O)C(C)N(C(=O)c2ccc(Cl)cc2Cl)N2C(=O)C3C4C=CC(C4)C3C2=O)cc1` (centres unmarked), the “hERG current change (%, negative = inhibition) at 10uM” value was found to be 0.401%.
As to `CCOC(=O)c1cncc(O)c1`, the “hERG current change (%, negative = inhibition) at 10uM” value is given as 9.08%.
`CC(C)(C)C1CCC(=NNC(=S)NCc2ccccc2)CC1` (centres unmarked): the “hERG current change (%, negative = inhibition) at 10uM” value is reported as 7.64%.
The same measure for `COc1cccc(NC(=O)c2ccc3c(c2)CCCC3)c1`: -2.55%; for `Clc1nc(NC2CCCC2)nc(N2CCOCC2)n1`: 9.9%.
For the compound `Cn1c(=O)c2c(nc(Oc3cccc(O)c3)n2C)n(C)c1=O`, the “hERG current change (%, negative = inhibition) at 10uM” value is 24.2%.
As to `CCCNC(=O)CSc1nccn1Cc1ccc(OC)cc1`, the “hERG current change (%, negative = inhibition) at 10uM” value is 15.3%.
